Hit rate of the full screen: of about 150,000 compounds, about 540 (0.36%) showed an effect of 50% or more. The list shows a part of the results.
The compounds below were run on Plasmodium falciparum (assay: Primary screen in NF54 nanoGlo assay, in single point, at 2uM, 72h; a lower Z score goes with more inhibition). Conditions: timepoint 72 hour.
Assay type: functional, Erythrocyte

Row | Compound | % Inhibition | Z score
1 | Cc1ccc(S(=O)(=O)N2CC[C@H](Oc3ccncn3)C2)s1 | -15% | 2.29
2 | CC(=O)N1CCC[C@@](NCCN2CCOCC2)(c2nnnn2CCC(C)C)C1 | -10% | 1.37
3 | Cc1oc(-c2cc(F)cc(F)c2)nc1CN1CC[C@H](O)[C@@H](O)C1 | -5% | 0.44
4 | CCc1ccsc1CNC(=NC)NCc1ncnn1C | -6% | 0.59
5 | CC(C)(C)OC(=O)N1CCC(CCn2nc(C#N)ccc2=O)CC1 | -3% | 0.42
6 | Cc1nsc(C(=O)NCc2cccnc2)n1 | -9% | 1.48
7 | CN(C)CCc1nnc(NC(=O)c2cc(C(F)F)[nH]n2)s1 | 4% | -0.65
8 | COc1ccc(-n2ccn3cc(-c4ccc(C)cc4C)nc3c2=O)cc1Cl | -3% | 0.4
9 | O=C(NCc1c(O)ccc2c1CCCC2)c1ncoc1[C@@H]1CCCO1 | -19% | 3.27
10 | COC(=O)c1nc(-c2ccc(C)cc2)oc1S(=O)(=O)c1cccc(OC)c1 | 2% | -0.22
11 | Cc1nnsc1C(=O)N1CC[C@H](N(C(=O)c2snnc2C)C2CC2)C1 | 3% | -0.6
12 | Cn1ncc2c(=O)n(Cc3nnc(C(F)(F)F)s3)cnc21 | -4% | 0.72
13 | CC1OCCC12CN(CCC(=O)Nc1ccccc1Cl)CCO2 (stereo not given) | 1% | -0.12
14 | Cc1nn(C)c(C)c1CC(C)C(=O)N1CC2OCCN(C)C2C1 (stereo not given) | -14% | 1.6
15 | O=C(c1cc2cc(F)ccc2s1)N1CCC[C@H]1c1nc2ccccc2s1 | -12% | 1.56
16 | Cc1nc(NCC2(Cn3ccnc3C)CC2)c2c(C)nn(C)c2n1 | -13% | 2.5
17 | COCCC1(CNC(=O)NCc2ccsc2)CCC1 | 2% | -0.24
18 | O=C(CN1CCC[C@H]1c1ccccc1)Nc1nnc(-c2ccccc2)o1 | -3% | 0.39
19 | COc1ccc([C@H](C)N(C)C(=O)c2ccn(C)c2C)cc1 | -5% | 0.96
20 | Cc1ccccc1S(=O)(=O)N(C)CCc1noc(C2CCCCC2)n1 | -9% | 0.88
21 | CC(C)N(C)C(=O)NC1CC2CCCCN2C1=O (stereo not given) | -1% | 0.1
22 | CCN(CC)CC1(NC(=O)c2cccc(Cl)c2Cl)CC1 | 1% | -0.1
23 | O=C(C[C@@H]1NC(=O)N(CCc2c[nH]c3ccccc23)C1=O)N1CCCC1 | -12% | 1.72
24 | C[C@H](NC(=O)NCCCS(C)(=O)=O)C1CCCCC1 | -5% | 0.64
25 | CCc1noc2nc(CCC(=O)N[C@@H](C)Cc3ccco3)nc(N3CCCCC3)c12 | -9% | 1.4
26 | C[C@H]1CCCN(C(=O)c2ccc3[nH]ncc3n2)C1 | 1% | -0.08
27 | CC(=O)N1CCC(N2C[C@@H]3NC(=O)CN(C4CC4)Cc4cccc(c4)Oc4cccc(c4)CO[C@H]3C2)CC1 | 13% | -1.86
28 | CN(CC1(CO)CCCC1)c1ncc(C#N)c(N)n1 | -8% | 1.59

Row | Compound | % Inhibition | Z score
29 | Cc1cc(C)c2[nH]c(C(=O)N(C[C@H]3CCC(=O)N3)C(C)C)c(C)c2c1 | -11% | 1.01
30 | C[C@H](NC(=O)c1cccs1)C(C)(C)C | 1% | -0.16
31 | COc1cc(Cc2nnc(C(=O)NCCc3ccccc3)o2)cc(OC)c1OC | -2% | 0.38
32 | COc1ccc(CN2CCN(c3ccc(NS(=O)(=O)c4ccc(F)cc4)cn3)CC2)cc1 | 1% | -0.19
33 | CCOC(=O)c1ncn(C2CCN(C(=O)Nc3ccc(OCC)cc3)CC2)c1N | -10% | 1.14
34 | CN1C(=O)C[C@H](C(=O)N2CC(CC(F)F)C2)[C@H]1c1nccn1C | -3% | 0.53
35 | Cc1cc(C)cc(/N=C(/NC(=O)c2cccc(Br)c2)N2CCN(C3CCCCC3)CC2)c1 | -1% | 0.2
36 | CCCOc1cncc(-c2ccc3c(c2)NC(=O)C32CC2)c1 | -2% | 0.28
37 | Cc1cc(Br)c2[nH]nc(NC(=O)[C@@H]3COCCO3)c2c1 | 5% | -0.94
38 | O=S1(=O)CC[C@H](CNS(=O)(=O)c2ccc(F)cc2)C1 | -3% | 0.39
39 | CCCN(C(=O)CN1CCN(CC)CC1)[C@H]1CCCC[C@@H]1O | -7% | 1.5
40 | Cc1cc(C)nc(NC(=O)N(C)CC2(O)CCCC2)c1 | -6% | 1.1
41 | COCCn1c(CO)nnc1[C@H]1C[C@@H](NC(=O)C2(C)CCCCC2)C1 | -10% | 2
42 | O=C(O)c1ccccc1CN1C[C@@H]2CC[C@H]1CN(C1CCOCC1)C2 | 0% | 0.03
43 | CNC(=O)c1[nH]nc2c1CN(CCOc1ccc(C)cc1OC)CC2 | -13% | 1.39
44 | Cc1ccc(CNc2nc3ccccc3c3nc(CCc4c(C)n[nH]c4C)nn23)cc1 | -6% | 0.96
45 | COc1ccc(CN2CC[C@@H]3OCc4cnnn4[C@@H]3C2)cc1 | -14% | 1.34
46 | Cc1ccc(N(C)C(=O)CN)cc1Cl | -15% | 2.81
47 | N#Cc1ccccc1OCCN1CCc2cncnc2C1 | 3% | -0.52
48 | C=CCNC(=O)C(=O)NCCc1ccc(F)cc1 | -7% | 0.91
49 | CN(CCNC(=O)c1ccc2[nH]c3c(c2c1)CN(C(=O)C1CCC1)CC3)C1CCCCC1 | 3% | -0.39
50 | CCS(=O)(=O)N(CCN1CCCCC1)C1CN(C(=O)c2ccncc2)C1 | 5% | -0.73
51 | CC(C)Nc1ccc(C(F)(F)F)cc1N | -3% | 0.53
52 | Cc1ccc2c(c1)CCCN2C(=O)[C@@H]1COc2ccccc2O1 | 5% | -0.67
53 | CC(C)c1ccc(C#N)c(-c2ccc(C(=O)N3CCC(F)(F)CC3)cc2)n1 | -8% | 1.43
54 | CCc1ccc(C(=O)N(C)Cc2cc(C(C)C)on2)[nH]1 | -2% | 0.24
55 | COc1ccc(Cc2n[nH]c(NC(=O)CCNc3nc(C)cc(C)n3)n2)cc1 | 2% | -0.31

Reference: ChEMBL document CHEMBL4888484, “Replenishing the malaria drug discovery pipeline: Screening and hit evaluation of the MMV Hit Generation Library 1 (HGL1) against asexual blood stage Plasmodium falciparum ,using a nano luciferase reporter read-out” (2022)
